Over roughly 110,000 compounds, “z-score” has its median near -0.1; the highest 2% begin near 2. The list shows a part of the results. Active and inactive are the calls of the source.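 How the source made its calls: active means z-score in the third read window above 3 or below -3; inactive means the rest.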

The target of this test is Metabotropic glutamate receptor 8 (Rattus norvegicus) (UniProt P70579). The test can be described thus: mGluR8 Gi/Go-coupled signaling modulation – cell-based, rat, thallium flux, HTS, primary screen (AID 488969). The conditions noted are these: HEK293 rat mGluR8, GIRK (G protein-gated inwardly rectifying potassium channel) thallium flux, FluoZin2; at 10 µM; stronger effect = higher value; submaximal glutamate (EC20) added with thallium.
Sequence of UniProt P70579 (P70579 whole entry, looked up): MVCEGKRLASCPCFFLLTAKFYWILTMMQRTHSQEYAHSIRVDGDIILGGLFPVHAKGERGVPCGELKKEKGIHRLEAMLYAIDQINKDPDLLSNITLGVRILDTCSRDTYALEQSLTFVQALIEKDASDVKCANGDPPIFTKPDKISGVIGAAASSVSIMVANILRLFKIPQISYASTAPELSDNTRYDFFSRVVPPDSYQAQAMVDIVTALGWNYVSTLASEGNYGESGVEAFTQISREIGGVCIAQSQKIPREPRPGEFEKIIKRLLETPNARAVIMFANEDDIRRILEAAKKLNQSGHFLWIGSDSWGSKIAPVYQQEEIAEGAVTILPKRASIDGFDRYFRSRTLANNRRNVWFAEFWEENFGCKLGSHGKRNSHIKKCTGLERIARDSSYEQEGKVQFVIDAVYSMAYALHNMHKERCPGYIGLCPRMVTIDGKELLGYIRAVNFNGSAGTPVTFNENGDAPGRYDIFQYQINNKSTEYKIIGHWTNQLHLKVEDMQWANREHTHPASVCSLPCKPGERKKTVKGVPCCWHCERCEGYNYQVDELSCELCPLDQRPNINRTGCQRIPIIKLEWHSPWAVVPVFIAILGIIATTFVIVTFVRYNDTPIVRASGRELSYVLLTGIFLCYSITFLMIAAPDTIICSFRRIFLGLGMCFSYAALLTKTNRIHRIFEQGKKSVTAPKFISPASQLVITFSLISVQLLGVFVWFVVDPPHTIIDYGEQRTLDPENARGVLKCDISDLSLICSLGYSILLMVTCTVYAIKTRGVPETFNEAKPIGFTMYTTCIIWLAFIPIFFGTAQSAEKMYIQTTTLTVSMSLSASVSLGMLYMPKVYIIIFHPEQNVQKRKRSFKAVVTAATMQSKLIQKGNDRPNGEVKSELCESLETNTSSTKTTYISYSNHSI
Take `CC(=O)OCCNc1cc(SCc2ccco2)c2nonc2c1[N+](=O)[O-]`: the z-score was -0.392.

As for `O=c1c2ccccc2ncn1-c1ccc(Cl)c(Cl)c1`, the z-score is -0.569. Take `Cc1cc2ccccc2nc1SCC(=O)N1c2ccccc2CC1C` (stereo not given): the z-score worked out at 0.174. The result for `CCN1CCN(C(=O)c2ccc(CSc3ccc(C)cc3)cc2)CC1` reads -0.127.

`O=C(COC(=O)c1ccncc1)NC(=O)C1CCCCC1` gave a z-score of 0.0543. To `CC(Sc1nnc(Cc2cccs2)n1C1CCCCC1)C(=O)N1CCc2ccccc21` (stereo not given) belongs 0.645; to `NC(=O)c1ccsc1NC(=O)COC(=O)Cc1cccc2ccccc12`, 0.233. The molecule `CCN(CC)CCNC(C(=O)Nc1ccc([N+](=O)[O-])cc1Br)c1ccccc1` (stereo not given) gave a z-score of 0.798. Turning to `CC1CCCCC1NC(=O)C(=O)NCC1CCCO1` (stereo not given), the z-score is -0.187. As for `Cc1cc(Oc2ccc(C(C)(C)C)cc2)nc(N2CCOCC2)n1`, the z-score is -0.693. The result for `CC(OC(=O)c1oc2ccccc2c1CSC1CCCCC1)C(=O)NC(N)=O` (stereo not given) reads -0.156; that for `Cc1ccc(S(=O)(=O)N2CCN(Cc3cccc(C)c3O)CC2)cc1`, 0.58.

As for `COc1ccc(CNc2ccc(-c3ccc(OC)cc3)nn2)cc1`, the z-score was -1.25. To `CCC(CC)C(=O)Nc1cccc(C(=O)N2CCOCC2)c1` belongs 0.227; to `COC(=O)c1c(NC(=O)CSc2ncnc3c2cnn3-c2ccccc2Cl)sc2c1CCCC2`, 0.181; to `Cc1cnn(C(=S)NCCc2ccccc2)c1`, -0.366. Consider `COc1ccc(Cl)cc1-c1nc(-c2ccc(NC(=O)c3cccs3)cc2)no1`, for which the z-score was -0.334. The result for `O=C(Nc1ccccc1-c1nc2ccccc2[nH]1)c1ccc(S(=O)(=O)N2CCCCC2)cc1` reads -0.112; that for `COCCn1c(SCC(N)=O)nnc1-c1c[nH]c2ccccc12`, -0.303. As to `O=C(CSc1ccc(-c2ccc(F)cc2)nn1)Nc1ccc2c(c1)OCCO2`, the z-score is -0.287. The result for `O=C1c2cccc3cccc(c23)C(=O)N1c1ccc2ncccc2c1` reads -0.261; that for `COc1cc(NC(=S)NN2CCN(C)CC2)cc(OC)c1`, -0.321. On to `C=CCN(CC=C)C(=S)NC(=O)c1ccc(OC)c(Br)c1`, for which the z-score is active: 15.4.

Consider `Cc1noc(/C=C/N(C)C)c1S(=O)(=O)N1CCCC(C(=O)NCCC2=CCCCC2)C1` (stereo not given), for which the z-score was -0.237. The result for `COc1ccc(NS(=O)(=O)c2cccc(Cl)c2Cl)cc1S(=O)(=O)N1CCCCC1` reads -0.511. To `Cc1cccc(NCN2C(=O)C3C4C=CC(C4)C3C2=O)c1` (stereo not given) belongs 0.00259; to `Cc1ccc(NC(=O)[C@@H]2CCCN2S(=O)(=O)c2ccccc2F)cc1S(=O)(=O)N1CCOCC1`, 0.0593; to `S=c1[nH]nc(CSc2nc3ccccc3s2)n1C1CCCCC1`, active: 14.9. The result for `Cc1nnc2sc(-c3cccc(NC(=O)c4cccnc4)c3)nn12` reads -2.98; that for `C=CCn1c(C)cc(C(=O)CN2C(=O)c3ccccc3C2=O)c1C`, 0.595.

The values above are taken from PubChem BioAssay AID488969 (Vanderbilt High Throughput Screening Facility, 2010).
